This note sets out measurements from paper PMC4336329 (PLoS ONE, 2015).

Structures are written as SMILES. The campaign covered roughly 310,000 compounds. About 14,000 (4.5%) showed an effect of 50% or more. The effect is printed as a negative number. The list shows a part of the results.
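Further: peak tail current of the secondary pulse compared with the same well before compound.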

The target of the assay is human ether-à-go-go-related gene (hERG) potassium channel (human, UniProt Q12809). The experiment in a line: primary screen, population patch clamp on CHO cells stably expressing hERG.
Sequence of human ether-à-go-go-related gene (hERG) potassium channel (Q12809 whole entry, looked up): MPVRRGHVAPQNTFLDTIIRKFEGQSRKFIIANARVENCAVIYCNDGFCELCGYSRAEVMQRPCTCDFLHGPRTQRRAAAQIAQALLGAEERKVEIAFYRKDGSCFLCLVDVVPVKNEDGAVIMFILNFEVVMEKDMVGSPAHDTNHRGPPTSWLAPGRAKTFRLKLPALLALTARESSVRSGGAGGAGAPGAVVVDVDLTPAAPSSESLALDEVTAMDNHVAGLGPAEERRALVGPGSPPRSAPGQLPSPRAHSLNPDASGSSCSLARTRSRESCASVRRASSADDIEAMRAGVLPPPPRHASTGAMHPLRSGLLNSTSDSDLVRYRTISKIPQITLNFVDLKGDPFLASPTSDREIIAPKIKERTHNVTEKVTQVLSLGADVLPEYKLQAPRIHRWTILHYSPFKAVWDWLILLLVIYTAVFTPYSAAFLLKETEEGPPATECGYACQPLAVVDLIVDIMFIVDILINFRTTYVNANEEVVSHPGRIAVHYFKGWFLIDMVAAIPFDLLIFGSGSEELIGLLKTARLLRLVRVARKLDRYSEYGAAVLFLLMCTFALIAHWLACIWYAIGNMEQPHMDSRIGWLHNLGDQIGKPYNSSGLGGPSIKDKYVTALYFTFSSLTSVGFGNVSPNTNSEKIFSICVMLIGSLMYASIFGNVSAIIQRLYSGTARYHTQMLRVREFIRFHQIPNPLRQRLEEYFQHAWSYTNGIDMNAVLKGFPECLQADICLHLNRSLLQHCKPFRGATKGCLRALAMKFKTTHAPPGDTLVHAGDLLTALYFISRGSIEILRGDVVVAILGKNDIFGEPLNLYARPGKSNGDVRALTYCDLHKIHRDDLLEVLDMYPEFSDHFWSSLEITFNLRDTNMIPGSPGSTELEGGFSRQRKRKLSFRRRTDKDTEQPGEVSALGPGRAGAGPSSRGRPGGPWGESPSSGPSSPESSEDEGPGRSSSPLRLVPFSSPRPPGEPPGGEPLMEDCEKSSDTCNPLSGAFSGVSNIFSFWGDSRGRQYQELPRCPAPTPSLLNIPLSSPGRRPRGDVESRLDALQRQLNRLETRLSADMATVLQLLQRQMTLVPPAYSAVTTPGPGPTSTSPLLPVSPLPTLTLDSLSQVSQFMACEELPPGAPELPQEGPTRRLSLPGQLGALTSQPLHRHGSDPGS
For the molecule `COC(=O)C1=C(c2ccc3ccccc3c2)C[C@@H]2CC[C@H]1N2C(=O)NC(C)C`, the “hERG current change (%, negative = inhibition) at 10uM” value is given as -3.76%. On to `COc1ccc(OC)c(NC(=O)c2cc(-c3ccc(C)cc3O)n[nH]2)c1`, for which the “hERG current change (%, negative = inhibition) at 10uM” value was -1.28%. Consider `O=C(CCS(=O)(=O)c1ccc(Cl)cc1)Nc1nc(-c2ccncc2)cs1`, for which the “hERG current change (%, negative = inhibition) at 10uM” value is recorded as -25.9%. Regarding `CC(C)CN(C(=O)CN1CCN(c2ccccc2O)CC1)c1c(N)n(CC(C)C)c(=O)[nH]c1=O`, the “hERG current change (%, negative = inhibition) at 10uM” value is reported as 18.1%. Regarding `CCOc1ccccc1NC(=O)CN(c1ccc(Cl)cc1)S(C)(=O)=O`, the “hERG current change (%, negative = inhibition) at 10uM” value was -20.9%.

In the case of `CCOC(=O)Cc1csc(/N=C/c2c(O)n(-c3ccccc3C(F)(F)F)c(=O)c3ccccc23)n1`, the “hERG current change (%, negative = inhibition) at 10uM” value is on record as 15.3%. With `O=C(CCC1CCCC1)Nc1ccc([N+](=O)[O-])cn1`, the “hERG current change (%, negative = inhibition) at 10uM” value is listed as -28.8%. As for `CCC1CCCCN1CCCCOc1cccc(Cl)c1.O=C(O)C(=O)O` (stereo not drawn), the “hERG current change (%, negative = inhibition) at 10uM” value is recorded as -72%. In the case of `CC(C)C(=O)Nc1cccc(C(=O)Nc2cc([N+](=O)[O-])ccc2Cl)c1`, the “hERG current change (%, negative = inhibition) at 10uM” value is listed as -0.874%. With `O=C(CCNC(=O)N1CC(=O)Nc2ccccc21)Nc1ccc(F)c(Cl)c1`, the “hERG current change (%, negative = inhibition) at 10uM” value is 3.66%.

As for `CN(C)CCCNc1c2c(nc3ccccc13)CCC2.Cl`, the “hERG current change (%, negative = inhibition) at 10uM” value is on record as -3.18%. With `Cn1c(NC(=O)c2cc(Cl)ccc2Cl)cc(=O)n(C)c1=O` the figure was -16.3%; with `CS(=O)(=O)c1ccc(Cl)c(NC(=O)COC(=O)c2cccc(C#N)c2)c1`, -0.788%. `O=C(NCc1ccc(Cl)cc1)c1cc(=O)[nH]c2ccccc12`: the “hERG current change (%, negative = inhibition) at 10uM” value came to 5.24%.

Take `CCOc1ccccc1N1CC(C(=O)Nc2nccs2)CC1=O` (stereo not drawn): the “hERG current change (%, negative = inhibition) at 10uM” value is on record as 10.8%. In the case of `Cc1cc(C)cc(N(CCC#N)C(=O)CN2C(=O)NC3(CCCC3)C2=O)c1`, the “hERG current change (%, negative = inhibition) at 10uM” value is reported as 3.89%. On to `Cc1cc(C)c2[nH]c(=O)c(CN(Cc3cccs3)C(=S)NCc3ccco3)cc2c1`, for which the “hERG current change (%, negative = inhibition) at 10uM” value was -15.7%. In the case of `CCCCN(CC)CCCNC(=O)c1ccc(CS(=O)(=O)c2ccccc2C)o1`, the “hERG current change (%, negative = inhibition) at 10uM” value is -35.2%.

As to `COc1ccc(C(=O)/C=C/Nc2ccccn2)cc1`, the “hERG current change (%, negative = inhibition) at 10uM” value is on record as 2.01%.

For the molecule `O=C1C(c2ccccc2)NC(=S)N1C1CCCCC1` (stereo not drawn), the “hERG current change (%, negative = inhibition) at 10uM” value was 12.6%. For `CCOC(=O)C1(Cc2cccc(OC)c2)CCCN(C(=O)c2ccc(OC)o2)C1` (stereo not drawn) the value was -17.1%; for `CCCCn1c(=O)c2c(c3ccccc31)OCC(=O)N2`, -4.7%; for `Cc1cccc(-c2cc3c(nn2)-c2ccccc2C3=O)c1`, -1.13%. As to `CC(=O)c1cccc(-n2nnnc2SCC(=O)Nc2cc(C)on2)c1`, the “hERG current change (%, negative = inhibition) at 10uM” value amounted to 3.51%. As for `CC(C)(C)C1CCC(OCC(O)CN2CCN(c3ccccc3)CC2)CC1.Cl` (stereo not drawn), the “hERG current change (%, negative = inhibition) at 10uM” value is 1.42%.

For the molecule `O=C(O)C/C(=C\c1ccc(N2CCOCC2)c([N+](=O)[O-])c1)c1nc2ccccc2s1`, the “hERG current change (%, negative = inhibition) at 10uM” value is given as 0.193%.

`O=C(CCSc1ccc(F)cc1)NNC(=O)c1ccc([N+](=O)[O-])cc1`: the “hERG current change (%, negative = inhibition) at 10uM” value is given as -47.7%. For the molecule `O=C(/C=C/c1cccs1)c1ccc([N+](=O)[O-])cc1`, the “hERG current change (%, negative = inhibition) at 10uM” value was 17.2%. For `CCOCCCNC(=O)C1CCN(S(=O)(=O)N2CCCCC2)CC1` the value was 3.94%. In the case of `CCOC(=O)C1CCCN(C(=O)CCNS(=O)(=O)c2cc(Br)cnc2N)C1` (stereo not drawn), the “hERG current change (%, negative = inhibition) at 10uM” value is on record as -0.00402%. As for `CC1CCCN(C(=S)Nc2ccc3nc4n(c(=O)c3c2)CCCCC4)C1` (stereo not drawn), the “hERG current change (%, negative = inhibition) at 10uM” value is reported as -66.1%.

With `O=C(CCCC(=O)c1ccc(F)cc1)c1ccc(F)cc1`, the “hERG current change (%, negative = inhibition) at 10uM” value is reported as -25.8%. In the case of `CN=C(NC#N)NCCSCc1nc[nH]c1C`, the “hERG current change (%, negative = inhibition) at 10uM” value was determined as 6.44%.

On to `COc1ccc(C(C(=O)NC2CCCC2)N(C(=O)c2ccco2)c2cccc(C(C)=O)c2)cc1OC` (stereo not drawn), for which the “hERG current change (%, negative = inhibition) at 10uM” value amounted to 7.11%. Consider `CC(C)CNC(=O)C(=O)NNC(=O)C1CCCCC1`, for which the “hERG current change (%, negative = inhibition) at 10uM” value is 1.25%. Turning to `CCOC(=O)c1cc(-c2ccccc2)n(CCC(=O)N2CCN(c3ccccc3OC)CC2)c1C`, the “hERG current change (%, negative = inhibition) at 10uM” value came to 2.59%. In the case of `C#CCOCCOCCOCCNc1nc(N2CCN(C(=O)[C@H](CCC(=O)O)n3cc(C(N)CC(C)C)nn3)CC2)nc(N2CCN(C(=O)[C@H](CCC(=O)O)n3cc(C(N)[C@H](C)CC)nn3)CC2)n1.Cl` (stereo partly drawn), the “hERG current change (%, negative = inhibition) at 10uM” value was found to be 10.3%. `COc1cc(/C=N/NC(=O)C2COc3ccccc3O2)cc(OC)c1OC` (stereo not drawn): the “hERG current change (%, negative = inhibition) at 10uM” value was 0.732%. With `COc1cc(C2C(C(=O)c3cccs3)=C(O)C(=O)N2Cc2ccco2)cc(OC)c1OC` (stereo not drawn), the “hERG current change (%, negative = inhibition) at 10uM” value is reported as 6.06%. For `O=C(Cc1c(F)cccc1Cl)OCN1C(=O)c2ccccc2C1=O` the value was 12.4%; for `O=C(CCc1ccc(S(=O)(=O)NCCc2ccccc2)cc1)NCc1ccco1`, -12.3%; for `O=C(NCCN1CCOCC1)c1cccc(S(=O)(=O)N2CCCCCC2)c1`, 7.38%.
